Assay results from patent US20250277200A1 (VERTEX PHARMACEUTICALS, published 2025).

What was measured:
C5a = biological target: T1, C5a (Homo sapiens (Human), UniProt P01031 678-751); experiment: cell-based or functional assay
T1 sequence: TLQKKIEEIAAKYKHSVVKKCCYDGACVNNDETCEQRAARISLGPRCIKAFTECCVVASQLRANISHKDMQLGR

C3a = C3a (Homo sapiens (Human), UniProt P01024 672-748); experiment: cell-based or functional assay
Chain of C3a (P01024 672-748 limits assumed): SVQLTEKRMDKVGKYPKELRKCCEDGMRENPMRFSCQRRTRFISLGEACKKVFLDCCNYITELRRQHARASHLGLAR

B1: CPN1-HSA (enzyme)
chain: VTFRHHRYDDLVRTLYKVQNECPGITRVYSIGRSVEGRHLYVLEFSDHPGIHEPLEPEVKYVGNMHGNEALGRELMLQLSEFLCEEFRNRNQRIVQLIQDTRIHILPSMNPDGYEVAAAQGPNKPGYLVGRNNANGVDLNRNFPDLNTYIYYNEKYGGPNHHLPLPDNWKSQVEPETRAVIRWMHSFNFVLSANLHGGAVVANYPYDKSFEHRVRGVRRTASTPTPDDKLFQKLAKVYSYAHGWMFQGWNCGDYFPDGITNGASWYSLSKGMQDFNYLHTNCFEITLELSCDKFPPEEELQREWLGNREALIQFLEQVHQGIKGMVLDENYNNLANAVISVSGINHDVTSGDHGDYFRLLLPGIYTVSATAPGYDPETVTVTVGPAEPTLVNFHLKRSGSSGGSSGGSSG[about 600 residues cut from this listing]
C5a
  EC50 (Arg LC-MS/MS, purified enzyme): 35.3 nM
C3a
  EC50 (Arg LC-MS/MS, purified enzyme): 4.42 nM
